Source: the supplement of paper PMC3334620
Whole data set: some 33,000 sequences, median “E-score (-0.5 to 0.5)” near -0.011, cut for the highest 2% near 0.28. The list shows a part of the results.

The sequences below were run against T1, Gcr1 (UniProt P07261) (assay: PBM E-score (8-mer binding enrichment) (E-score (-0.5 to 0.5)); higher = stronger / more preferred TF binding; most listed sequences are background and not binding sites). Conditions: protein concentration: 100 nM; construct: GST-full length.
T1 sequence: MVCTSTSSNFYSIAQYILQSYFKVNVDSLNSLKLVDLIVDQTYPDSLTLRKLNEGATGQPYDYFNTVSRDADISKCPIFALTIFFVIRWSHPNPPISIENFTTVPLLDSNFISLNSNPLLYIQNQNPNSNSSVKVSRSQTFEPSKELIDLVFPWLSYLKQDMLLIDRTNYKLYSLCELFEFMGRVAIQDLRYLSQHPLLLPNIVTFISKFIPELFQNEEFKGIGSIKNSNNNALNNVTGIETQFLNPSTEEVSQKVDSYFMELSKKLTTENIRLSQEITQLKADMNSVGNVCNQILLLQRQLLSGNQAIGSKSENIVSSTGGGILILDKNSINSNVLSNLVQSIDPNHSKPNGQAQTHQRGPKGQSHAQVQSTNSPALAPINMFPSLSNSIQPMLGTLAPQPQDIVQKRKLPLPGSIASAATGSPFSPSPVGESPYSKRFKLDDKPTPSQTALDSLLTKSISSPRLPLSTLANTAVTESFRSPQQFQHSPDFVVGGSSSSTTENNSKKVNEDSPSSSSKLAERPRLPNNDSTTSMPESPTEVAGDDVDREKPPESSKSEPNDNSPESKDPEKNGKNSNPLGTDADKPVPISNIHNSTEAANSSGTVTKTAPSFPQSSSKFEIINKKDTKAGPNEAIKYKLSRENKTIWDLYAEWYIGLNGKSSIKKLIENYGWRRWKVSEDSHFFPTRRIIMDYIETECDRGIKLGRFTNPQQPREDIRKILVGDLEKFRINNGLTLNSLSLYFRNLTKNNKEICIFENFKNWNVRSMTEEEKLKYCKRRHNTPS
Procedure, shortened: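 Detection of bound protein used fluorescent anti-GST, with scans normalised by masliner. The proteins were GST-tagged yeast transcription factors applied at about 100-200 nM to universal all-10-mer Agilent arrays made double-stranded by primer extension. Each ungapped eight-base word, pooled with its reverse complement, was scored with an E-score from the Universal PBM Analysis Suite.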

Going from ATTAATAG to AGTCGCAA, the “PBM E-score” value falls from 0.196 to -0.0494.

Going from CTCCACTA to AATCGCGT, the “PBM E-score” value falls from 0.215 to 0.132.

Compared with AGATCCAG, ATCAGTTC is lower in “PBM E-score” value: 0.252 for the first, -0.0665 for the second.

First: GAGAGCTC
Second: GAATGTGA
The “PBM E-score” value of the first is lower: -0.255 for the first, -0.129 for the second.

First: CATTCGCA
Second: TCACCTAA
The “PBM E-score” value of the first is lower: -0.0163 for the first, 0.0538 for the second.

Going from AATCGGTA to AGTTGGAA, the “PBM E-score” value rises from 0.138 to 0.187.

First: AATTATGT
Second: AAACGTCG
The “PBM E-score” value of the first is lower: 0.032 for the first, 0.0491 for the second.

Going from ACTACGCG to CCGAATCG, the “PBM E-score” value falls from 0.0454 to -0.0347.

Compared with AGACCACA, AGAAGAGC is higher in “PBM E-score” value: -0.0831 for the first, 0.027 for the second.

First: GAACTGGC
Second: ATAGGGGC
The “PBM E-score” value of the first is lower: 0.116 for the first, 0.127 for the second.

Compared with CACCAGTA, GCAGTGGC is lower in “PBM E-score” value: 0.0978 for the first, -0.0564 for the second.

Going from AGAGACGA to CCGTGAGC, the “PBM E-score” value falls from -0.168 to -0.236.

Compared with ACCGTTCC, AAACATAT is higher in “PBM E-score” value: -0.187 for the first, 0.068 for the second.

Going from CCACAGTC to CAGCGTAA, the “PBM E-score” value rises from -0.16 to 0.00692.

Compared with CGATCGTC, TCAACCGA is higher in “PBM E-score” value: -0.11 for the first, -0.0286 for the second.

First: CAGTATGG
Second: AAACTGGA
The “PBM E-score” value of the first is lower: 0.0545 for the first, 0.224 for the second.

Compared with CATTACAA, GTAACTGA is lower in “PBM E-score” value: 0.0311 for the first, -0.0947 for the second.

Compared with CGAGCATA, CAAGGCTC is lower in “PBM E-score” value: -0.0961 for the first, -0.206 for the second.

First: CCCGTCCC
Second: GGATGCAA
The “PBM E-score” value of the first is lower: -0.162 for the first, 0.183 for the second.

Compared with CGAAAAAC, GTTGTGGA is higher in “PBM E-score” value: 0.0498 for the first, 0.166 for the second.

First: AAGTGCCA
Second: AAAACTTG
The “PBM E-score” value of the first is lower: -0.0488 for the first, 0.15 for the second.

Going from GGTCGCCA to GCTTGGAC, the “PBM E-score” value falls from 0.155 to -0.122.

First: AGTAGCGC
Second: GCAGCCGC
The “PBM E-score” value of the first is lower: 0.21 for the first, 0.282 for the second.

First: CTAAATTA
Second: AATGCGAC
The “PBM E-score” value of the first is higher: 0.259 for the first, 0.0447 for the second.

Compared with GCCCAAGC, CACGGGAC is lower in “PBM E-score” value: 0.00848 for the first, -0.0178 for the second.

Going from CCCATGTC to CTCCCTTA, the “PBM E-score” value rises from -0.0978 to -0.0514.

First: ATTAACCC
Second: ACTAGTGA
The “PBM E-score” value of the first is lower: -0.149 for the first, 0.12 for the second.

Compared with TAGAATCA, CGGGCCAC is lower in “PBM E-score” value: 0.0337 for the first, -0.0425 for the second.

Compared with CCATCCTA, GACTAGGC is lower in “PBM E-score” value: 0.0473 for the first, -0.229 for the second.

Going from CTAAGCAC to TCGAAAGA, the “PBM E-score” value rises from -0.121 to 0.0113.

Going from CCCAATGA to AAGGTGCT, the “PBM E-score” value rises from 0.026 to 0.22.

Compared with AACTGACC, CGATGTAA is higher in “PBM E-score” value: -0.32 for the first, -0.0331 for the second.

Compared with GGATCTAC, ATACAAGA is higher in “PBM E-score” value: -0.0183 for the first, 0.138 for the second.

Going from CATCACGG to ACGCGTAG, the “PBM E-score” value rises from -0.01 to 0.0372.

First: CTCCATCC
Second: GGTATGGA
The “PBM E-score” value of the first is lower: -0.0484 for the first, -0.0346 for the second.

Going from AACAACCA to CATTTCCA, the “PBM E-score” value rises from -0.0381 to 0.127.

Compared with GCTTAAAA, ATACTGCC is lower in “PBM E-score” value: 0.125 for the first, -0.104 for the second.

Compared with ACGGCGTC, CGTATAAC is higher in “PBM E-score” value: 0.243 for the first, 0.269 for the second.

Going from AATTGGTG to GCGTCCAC, the “PBM E-score” value rises from 0.071 to 0.339.

Going from CGATATCC to AATGAGCG, the “PBM E-score” value falls from 0.062 to -0.0664.

Going from AACCGGCT to ACGCTGAT, the “PBM E-score” value rises from -0.144 to -0.0742.

First: GTAAAATA
Second: ATAGCTTG
The “PBM E-score” value of the first is higher: 0.176 for the first, -0.214 for the second.

Compared with GTCAGGAA, CCACCTTA is lower in “PBM E-score” value: 0.104 for the first, 0.0762 for the second.

Compared with CAGTGTCC, CAACACCC is higher in “PBM E-score” value: -0.0704 for the first, 0.0217 for the second.

First: GTGTTGTA
Second: AGGCTAAC
The “PBM E-score” value of the first is higher: -0.0664 for the first, -0.0765 for the second.

Compared with CGGCGGTC, CCTCACTC is higher in “PBM E-score” value: -0.25 for the first, -0.00235 for the second.

Compared with ATAATAAG, TAGTAAGA is higher in “PBM E-score” value: 0.0786 for the first, 0.0909 for the second.

First: CTCGCCCC
Second: GGAGATCA
The “PBM E-score” value of the first is lower: -0.192 for the first, -0.079 for the second.

Going from CAACTGAA to ATGGGGCA, the “PBM E-score” value falls from 0.0567 to -0.0354.

Going from CCGCCGAA to ACCCAGGC, the “PBM E-score” value rises from -0.0708 to -0.0429.

Compared with CTCGCAAG, AGTATTAA is higher in “PBM E-score” value: -0.145 for the first, -0.0512 for the second.

Going from AGTGATGA to GTGAGTTA, the “PBM E-score” value falls from 0.0827 to -0.322.

Compared with CGCGGGAA, GGACATAA is higher in “PBM E-score” value: -0.0281 for the first, -0.0172 for the second.

First: AGCACCCC
Second: ACATCTAT
The “PBM E-score” value of the first is lower: 0.131 for the first, 0.232 for the second.

Going from CTCCAGAA to AACAAGTC, the “PBM E-score” value falls from 0.0346 to -0.0273.

Compared with AAGACATA, CTCGGGGA is higher in “PBM E-score” value: -0.177 for the first, -0.103 for the second.

First: GCACGGAA
Second: GCGCATCA
The “PBM E-score” value of the first is lower: -0.113 for the first, 0.0737 for the second.

Compared with CGAGTTGA, AGGTAGAA is lower in “PBM E-score” value: 0.0527 for the first, -0.0852 for the second.

Compared with AAAAGGGC, GGTAGGCA is lower in “PBM E-score” value: 0.0465 for the first, -0.0819 for the second.

Going from AATTTCCA to CACGCAAA, the “PBM E-score” value falls from 0.119 to -0.214.

First: CAGCTTAC
Second: ATCGTACC
The “PBM E-score” value of the first is lower: -0.0902 for the first, 0.0387 for the second.

Going from AAGTCCAA to AGCTGCTC, the “PBM E-score” value rises from 0.0133 to 0.0901.

Going from GGGACTAA to AAAGGTGC, the “PBM E-score” value rises from -0.17 to 0.0916.

Going from AATACTGA to AATGGCAT, the “PBM E-score” value rises from 0.0152 to 0.0702.

Going from GGAGGACA to ATGCTTCA, the “PBM E-score” value rises from -0.289 to -0.148.

First: GGGGGCTA
Second: AGAACTGG
The “PBM E-score” value of the first is lower: -0.171 for the first, 0.262 for the second.

First: AACGACCA
Second: CGTCGGAC
The “PBM E-score” value of the first is higher: 0.0113 for the first, -0.138 for the second.

First: AAGCGACC
Second: TACAGGGA
The “PBM E-score” value of the first is lower: 0.00658 for the first, 0.0615 for the second.

Going from ACTTTCTA to GAAACAAC, the “PBM E-score” value falls from 0.0663 to 0.0537.

First: CGAGCTGC
Second: TAAGACCA
The “PBM E-score” value of the first is higher: 0.151 for the first, -0.0414 for the second.

Compared with CTCCACCA, GGTCTAAA is lower in “PBM E-score” value: -0.0877 for the first, -0.202 for the second.

Going from ACATACGG to GGACCAGA, the “PBM E-score” value rises from -0.0164 to 0.00506.

First: AGCCTATA
Second: GCCCACTA
The “PBM E-score” value of the first is lower: 0.146 for the first, 0.229 for the second.

Compared with CATAAGGG, CCGCTGGC is lower in “PBM E-score” value: 0.109 for the first, -0.21 for the second.

Compared with GAAACACC, AATTGATC is lower in “PBM E-score” value: 0.0661 for the first, 0.0134 for the second.

Going from AGTGAGAT to AGTCCCCG, the “PBM E-score” value falls from 0.0539 to -0.106.

Compared with CGCAAGTC, AGTGTATC is lower in “PBM E-score” value: -0.135 for the first, -0.156 for the second.

Going from CCCTTGCG to TATACCCA, the “PBM E-score” value rises from -0.303 to 0.126.

Going from ATGCGTAA to CGGGTATA, the “PBM E-score” value falls from 0.0589 to -0.00271.

First: AGAGCACT
Second: AGGGTCGG
The “PBM E-score” value of the first is lower: -0.175 for the first, -0.133 for the second.

Compared with GGACCTTA, CGTACTAG is lower in “PBM E-score” value: -0.0838 for the first, -0.0906 for the second.

Compared with CCCTAGGC, TAGTGAAA is higher in “PBM E-score” value: -0.14 for the first, 0.0605 for the second.

Compared with AAAAGTTC, GGTACCAA is higher in “PBM E-score” value: 0.0111 for the first, 0.0964 for the second.

First: ATTTTCTA
Second: AAACTCTG
The “PBM E-score” value of the first is higher: 0.036 for the first, -0.0423 for the second.

Going from CGGGCACC to AGAGGCGG, the “PBM E-score” value falls from 0.376 to -0.0464.

Compared with ATGACCGA, CTACCCGA is higher in “PBM E-score” value: -0.19 for the first, -0.0733 for the second.
